# Experimental data taken from the supplement of paper PMC9588766.
# Where a name gives a salt, the structure may show the parent alone. ± gives the standard deviation of the averaged measurements. Over roughly 2,000 compounds, “cell viability relative to DMSO control (compound alone)” has its median near 0.98; the lowest 2% begin near 0.23. Some of the results follow.
# Test system: PDC-DUC18828
# Test: cell viability relative to DMSO control (compound alone) (fraction); PDC-DUC18828 is a patient-derived cholangiocarcinoma cell line; higher = less growth inhibition
# Settings: 1 µM; 72 h
# Experimental: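 Selleck Bioactive library screen in the patient-derived FGFR2-G3BP2 fusion-positive ICC cell line PDC-DUC18828 (500 cells/well). Each compound was tested at 1 uM alone, in triplicate, for 72 h. Viability was read by CellTiter-Glo and normalised to plate DMSO controls.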
row,Compound,cell viability
1,CC(=O)OCC(=O)[C@H]1CC[C@H]2[C@@H]3CCC4=CC(=O)CC[C@]4(C)[C@H]3CC[C@]12C [Deoxycorticosterone acetate],0.968 ± 0.047
2,Oc1cccc(-c2nc(N3CCOCC3)c3oc4ncccc4c3n2)c1,0.503 ± 0.11
3,Cn1cc(-c2ccc3c(c2)CCN3C(=O)Cc2cccc(C(F)(F)F)c2)c2c(N)ncnc21,0.937 ± 0.043
4,C#C[C@]1(O)CC[C@H]2[C@@H]3CCC4=CC(=O)CC[C@@H]4[C@H]3CC[C@@]21CC [Levonorgestrel],1.02 ± 0.021
5,N#C/C(=C\c1ccc(O)c(O)c1)C(=O)NCc1ccccc1 [AG-490 (Tyrphostin B42)],1.03 ± 0.013
6,O=C(/C=C/c1ccc(O)c(O)c1)O[C@@H]1C[C@](O)(C(=O)O)C[C@@H](O)[C@H]1O [Chlorogenic Acid],1.04 ± 0.039
7,C[C@@H]1COC(Nc2ccc3ncnc(Nc4ccc(OCc5nccs5)c(Cl)c4)c3c2)=N1 [Varlitinib],0.999 ± 0.046
8,CCOC(=O)C1=C(N)Oc2ccc(Br)cc2C1C(C#N)C(=O)OCC (centres undefined),1.1 ± 0.11
9,O=[N+]([O-])c1ccc(Nc2nc(N3CCOCC3)nc(N3CCOCC3)n2)cc1,1 ± 0.011
10,CCCCOc1cc(C(=O)OCCN(CC)CC)ccc1N [Oxybuprocaine HCl],0.985 ± 0.02
11,O=C1O[C@H]([C@@H](O)CO)C([O-])=C1O.[Na+] [Sodium ascorbate],0.984 ± 0.025
12,N#C/C(=C1/SC[C@@H](c2ccc(Cl)cc2Cl)S1)n1ccnc1 [Luliconazole],1.02 ± 0.027
13,CC(C)Oc1ccc2c(=O)c(-c3ccccc3)coc2c1 [Ipriflavone (Osteofix)],0.921 ± 0.017
14,CCCCOc1ccc(C(=O)Nc2ccc(F)cc2F)cc1,1.04 ± 0.074
15,Nc1nc(OCc2cc(Br)cs2)c2[nH]cnc2n1 [Lomeguatrib],1.02 ± 0.076
16,Clc1ccc2nsnc2c1NC1=NCCN1 [Tizanidine HCl],1.03 ± 0.014
17,"Cc1cc(Nc2cc(N3CCN(C)CC3)nc(Sc3ccc(NC(=O)C4CC4)cc3)n2)n[nH]1 [VX-680 (Tozasertib, MK-0457)]",0.877 ± 0.035
18,Cc1cc(C(C)Nc2ccccc2)c2nc(N3CCOCC3)cc(=O)n2c1 (centres undefined),0.878 ± 0.046
19,NC1(Cc2ccc(Cl)cc2)CCN(c2ncnc3[nH]ccc23)CC1,1.06 ± 0.053
20,N[C@H]1CC[C@H](N[C@@H]2C[C@H]2c2ccccc2)CC1,0.952 ± 0.019
21,Clc1ccc(C2(c3ccc(-c4cn[nH]c4)cc3)CCNCC2)cc1,0.924 ± 0.038
22,CNC(=O)[C@@H](NC(=O)[C@H](CC(C)C)[C@H](O)C(=O)NO)C(C)(C)C [Marimastat(BB-2516)],1.05 ± 0.031
23,C[C@]12CC[C@@H]3c4ccc(O)cc4C[C@@H](CCCCCCCCC[S+]([O-])CCCC(F)(F)C(F)(F)F)[C@H]3[C@@H]1CC[C@@H]2O (some centres undefined) [Fulvestrant],0.966 ± 0.05
24,C=C[C@](C)(O)CC[C@@H]1[C@@]2(C)CCCC(C)(C)[C@@H]2CC[C@@]1(C)O [Sclareol],1.08 ± 0.048
25,COC(=O)[C@H](Cc1ccccc1)NC(=O)[C@@H](N)CC(=O)O [Aspartame],1.03 ± 0.055

row,Compound,cell viability
1,CCS(=O)(=O)c1cccc(-c2cc(C(=O)NC3CCN(C)CC3)c(C)c3[nH]c4ncc(C)cc4c23)c1,0.323 ± 0.03
2,OCCn1cc(-c2ccc3c(c2)CC/C3=N\O)c(-c2ccncc2)n1,1.05 ± 0.075
3,CN1CCc2nc(C(=O)N[C@@H]3C[C@@H](C(=O)N(C)C)CC[C@@H]3NC(=O)C(=O)Nc3ccc(Cl)cn3)sc2C1 [Edoxaban],1.01 ± 0.05
4,CC[C@H]1OC(=O)[C@H](C)[C@@H](O[C@H]2C[C@@](C)(OC)[C@@H](O)[C@H](C)O2)[C@H](C)[C@@H](O[C@@H]2O[C@H](C)C[C@H](N(C)C)[C@H]2O)[C@](C)(O)C[C@@H](C)CN(C)[C@H](C)[C@@H](O)[C@]1(C)O [Azithromycin],0.983 ± 0.016
5,CN[C@H]1CC[C@@H](c2ccc(Cl)c(Cl)c2)c2ccccc21 [Sertraline HCl],0.973 ± 0.02
6,Nc1ccc(S(=O)(=O)Nc2nccs2)cc1 [Sulfathiazole],0.913 ± 0.039
7,O=C(O)c1cccc(-c2noc(-c3ccccc3F)n2)c1 [Ataluren (PTC124)],0.931 ± 0.054
8,Cc1ccc(-c2cc(C(F)(F)F)nn2-c2ccc(S(N)(=O)=O)cc2)cc1 [Celecoxib],0.996 ± 0.018
9,CC(C)[N+]1(C)[C@@H]2CC[C@H]1C[C@@H](OC(=O)C(CO)c1ccccc1)C2 (some centres undefined) [Ipratropium Bromide],1.03 ± 0.032
10,C=C[C@]1(C)C[C@@H](OC(=O)CSC(C)(C)CNC(=O)[C@H](N)C(C)C)[C@]2(C)[C@H](C)CC[C@]3(CCC(=O)[C@H]32)[C@@H](C)[C@@H]1O [Valnemulin HCl],0.959 ± 0.027
11,Cc1c(-c2ccc(O)cc2)n(Cc2ccc(OCCN3CCCCCC3)cc2)c2ccc(O)cc12 [Bazedoxifene Acetate],0.995 ± 0.044
12,Cc1c(-c2ccc(O)cc2)n(Cc2ccc(OCCN3CCCCCC3)cc2)c2ccc(O)cc12 [Bazedoxifene HCl],1.06 ± 0.053
13,CCc1cc2c(cc1CC)CC(NC[C@H](O)c1ccc(O)c3[nH]c(=O)ccc13)C2 [Indacaterol Maleate],0.891 ± 0.059
14,CCN(CC)CCNC(=O)c1ccc(N)cc1 [Procainamide HCl],1.01 ± 0.049
15,NC[C@H](O)c1ccc(O)c(O)c1 [Noradrenaline bitartrate monohydrate],1.1 ± 0.044
16,CC(C=CC1(O)C(C)=CC(=O)CC1(C)C)=CC(=O)O (centres undefined) [Abscisic Acid (Dormin)],1.02 ± 0.1
17,Cc1cc(C(C)(C)C)cc(C)c1CC1=NCCN1 [Xylometazoline HCl],1.01 ± 0.032
18,CCN(CC)C(=O)C1(c2ccccc2)CC1CN (centres undefined) [Milnacipran HCl],0.999 ± 0.088
19,COc1cc(NC(=O)c2ccccn2)ccc1Cl,1.01 ± 0.035
20,c1ccc(Cn2c(-c3ccc(OC[C@H](C4CCNCC4)n4c(-c5ccccc5)nc5ccccc54)cc3)nc3ccccc32)cc1 [Deltarasin],0.992 ± 0.026
21,CCN(CC)CCOCCOC(=O)C1(c2ccccc2)CCCC1 [Pentoxyverine Citrate],1.04 ± 0.018
22,CC#CCn1c(N2CCC[C@@H](N)C2)nc2c1c(=O)n(Cc1nc(C)c3ccccc3n1)c(=O)n2C [Linagliptin],0.912 ± 0.057
23,CNC(=O)c1ccc(N2C(=S)N(c3ccc(C#N)c(C(F)(F)F)c3)C(=O)C2(C)C)cc1F [Enzalutamide (MDV3100)],0.928 ± 0.033
24,COc1cc(OC)c(NC(=O)Nc2cc(C)on2)cc1Cl,1.1 ± 0.017
25,CCCc1ccc(OCC(=O)N(Cc2nc(-c3cccnc3)no2)C(C)C)cc1,1.04 ± 0.047

row,Compound,cell viability
1,COc1cc2nc(N3CCN(C(=O)C4COc5ccccc5O4)CC3)nc(N)c2cc1OC (centres undefined) [Doxazosin Mesylate],0.948 ± 0.022
2,N#C/C(=C(/N)Sc1ccc(N)cc1)c1ccccc1C(F)(F)F,1.07 ± 0.029
3,O=c1c(O)c(-c2ccc(O)cc2)oc2cc(O)cc(O)c12 [Kaempferol],0.934 ± 0.018
4,NC[C@@](O)(c1ccc(Cl)cc1)c1ccc(-c2cn[nH]c2)cc1,0.929 ± 0.098
5,CC(C)(C)c1cc(NC(=O)Nc2ccc(-c3cn4c(n3)sc3cc(OCCN5CCOCC5)ccc34)cc2)no1 [Quizartinib (AC220)],1.05 ± 0.022
6,O=C(/C=C/c1cccc(S(=O)(=O)Nc2ccccc2)c1)NO [Belinostat (PXD101)],0.393 ± 0.016
7,CC1=NN(c2ccc(C)c(C)c2)C(=O)/C1=N\Nc1cccc(-c2cccc(C(=O)O)c2)c1O [Eltrombopag],1.04 ± 0.041
8,CC1=NN(c2ccc(C)c(C)c2)C(=O)/C1=N\Nc1cccc(-c2cccc(C(=O)O)c2)c1O [Eltrombopag Olamine],1.01 ± 0.018
9,CCn1c(=O)c2c(nc(/C=C/c3ccc(OC)c(OC)c3)n2C)n(CC)c1=O [Istradefylline],1.05 ± 0.051
10,CC(C(O)c1ccc(O)cc1)N1CCC(Cc2ccccc2)CC1 (centres undefined) [Ifenprodil Tartrate],0.983 ± 0.04
11,C[C@@H]1C/C=C/C=C/C=C/C=C/[C@H](O[C@@H]2O[C@H](C)[C@@H](O)[C@H](N)[C@@H]2O)C[C@@H]2O[C@](O)(C[C@@H](O)C[C@H]3O[C@@H]3/C=C/C(=O)O1)C[C@H](O)[C@H]2C(=O)O [Natamycin],1.01 ± 0.049
12,CN1CCN2c3ncccc3Cc3ccccc3C2C1 (centres undefined) [Mirtazapine],0.9596 ± 0.0064
13,CC[C@H](NC(=O)[C@H](C)NC)C(=O)N1C[C@@H](O)C[C@H]1Cc1c(-c2[nH]c3cc(F)ccc3c2C[C@@H]2C[C@H](O)CN2C(=O)[C@H](CC)NC(=O)[C@H](C)NC)[nH]c2cc(F)ccc12 [Birinapant],0.938 ± 0.077
14,CC(C)N(CC[C@H](c1ccccc1)c1cc(CO)ccc1O)C(C)C,1.08 ± 0.032
15,CC(C)[C@H](N)C(=O)OCCOCn1cnc2c(=O)nc(N)[nH]c21 [Valaciclovir HCl],1.03 ± 0.079
16,Cc1cc(C)nc(NS(=O)(=O)c2ccc(N)cc2)n1 [Sulfamethazine],0.948 ± 0.03
17,CC1(C)O[C@@H]2C[C@H]3[C@@H]4C[C@H](F)C5=CC(=O)C=C[C@]5(C)[C@@]4(F)[C@@H](O)C[C@]3(C)[C@]2(C(=O)CO)O1 [Fluocinolone Acetonide],0.893 ± 0.02
18,CC(C)(Oc1ccc(Cl)cc1)C(=O)OCCOC(=O)c1cccnc1 [Etofibrate],0.997 ± 0.058
19,Cc1nc(C(=O)NCC(=O)O)c(O)c2ccc(Oc3ccccc3)cc12,0.877 ± 0.05
20,COC(=O)C1=CO[C@@H](O)[C@@H]2C(CO)=CC[C@H]12 [Genipin],1.02 ± 0.1
21,CC(O)c1cc(C(=O)N[C@@H](C)Cn2ccc(-c3ccc(C#N)c(Cl)c3)n2)n[nH]1 (some centres undefined),0.972 ± 0.099
22,CCCCCCNC(=O)n1cc(F)c(=O)[nH]c1=O [Carmofur],0.941 ± 0.049
23,COc1ccc(Cl)cc1C(=O)NCCc1ccc(S(=O)(=O)NC(=O)NC2CCCCC2)cc1 [Glyburide],1.01 ± 0.023
24,Nc1nc(=O)n([C@@H]2CS[C@H](CO)O2)cc1F [Emtricitabine],1.05 ± 0.016
